PubChem BioAssay (NCI)
Where “and” joins values, the source holds several entries; their conditions need not be identical. Equal values may be shown once.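 Briefly, cells in 96-well plates were exposed to five compound concentrations for 48 h, and endpoints were estimated by linear interpolation. Abbreviation: GI50, concentration required for 50% inhibition of growth. TGI denotes the concentration required for complete inhibition of growth.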

Tested on: NCI-H322M lung
Assay: inhibition of tumour cell growth, NCI panel, 48 h

Row | SMILES | TGI | GI50
1 | CC(C)N(C(=O)C12C3C4C1(I)C1C2C3(I)C41C(=O)N(C(C)C)C(C)C)C(C)C (stereo not drawn) | > 100 µM | –
2 | O=C(c1ccc(/C=C/c2n[nH]c3ccccc23)cc1)N1CCNCC1 | > 10 µM and 27.8 µM | > 10 µM and 7.27 µM
